Each structure is given as a SMILES string. Some of the results follow.

One test deals with HSkMC. Nature of the test: cytotoxicity call (relative viability < 0.9). The note with it: 10 µM.
In the next test the test system is HepG2. Nature of the test: cytotoxicity call (relative viability < 0.9). The conditions noted are these: 10 µM.
For the next test, the system named is S. aureus RN4220. Nature of the test: growth inhibition call (relative growth <= 0.2). The conditions noted are these: 50 µM.

On to `C=C(C)[C@@H]1CCC(C)=C[C@H]1c1c(OC)cc(C)cc1OC`, for which the cytotoxicity call with HSkMC and in the test on HepG2 was “inactive” each time. Also, the growth inhibition call in the test on S. aureus RN4220 was “inactive”.

On to `O=C([O-])CCCO.[Na+]`, for which the cytotoxicity call in the test with HSkMC and in the test on HepG2 was “inactive” in each case. The growth inhibition call in the test with S. aureus RN4220 was “inactive”.

As to `C[C@H]1CN([C@@H](C)CO)C(=O)CCCn2cc(nn2)CO[C@@H]1CN(C)C(=O)Oc1cccc2ccccc12`, the cytotoxicity call in the test on HSkMC and with HepG2 was “inactive” throughout. Besides, the growth inhibition call in the test on S. aureus RN4220 is “inactive”.

Consider `Cc1nccc2c1[nH]c1cc(O)ccc12`, for which the cytotoxicity call in the test on HSkMC and in the test on HepG2 was “inactive” throughout. The growth inhibition call with S. aureus RN4220 was “inactive”.

Take `Cn1cc(N2C[C@@H]3CNC[C@@H]3C2=O)cn1`: the cytotoxicity call with HSkMC and in the test on HepG2 was “inactive” throughout. The growth inhibition call in the test with S. aureus RN4220 is “inactive”.

For the compound `O=[N+]([O-])c1cc(O)c(O)c([N+](=O)[O-])c1`, the cytotoxicity call with HSkMC and in the test on HepG2 was “inactive” throughout. Moreover, the growth inhibition call with S. aureus RN4220 was “inactive”.

As for `OC[C@H]1O[C@@H](Oc2c[nH]c3ccc(Br)c(Cl)c23)[C@H](O)[C@@H](O)[C@H]1O`, the cytotoxicity call in the test with HSkMC and in the test with HepG2 was “inactive” throughout. Further, the growth inhibition call with S. aureus RN4220 was “inactive”.

Regarding `C#CC1(O)CCC2C3CCC4=CC(=O)CCC4(C)C3CCC21C` (stereo not given), the cytotoxicity call in the test with HSkMC was “inactive”. Moreover, in the test with HepG2, the cytotoxicity call is “active”. Moreover, in the test on S. aureus RN4220, the growth inhibition call was “inactive”.

On to `Cc1cccc2[nH]c(CCN)nc12`, for which the cytotoxicity call in the test with HSkMC and in the test with HepG2 was “inactive” throughout. The growth inhibition call in the test with S. aureus RN4220 was “inactive”.

Turning to `O=[N+]([O-])c1ccc(N(CCO)CCO)c2c1no[n+]2[O-]`, the cytotoxicity call in the test with HSkMC and with HepG2 was “active” throughout. Also, the growth inhibition call in the test with S. aureus RN4220 is “active”.

For `NCC1(CC(=O)O)CCCCC1`, the cytotoxicity call in the test on HSkMC and in the test on HepG2 was “inactive” throughout. In addition, in the test with S. aureus RN4220, the growth inhibition call was “inactive”.

Consider `COc1ccc2c(c1)C[C@H](N)C2`, for which the cytotoxicity call in the test with HSkMC and in the test with HepG2 was “inactive” throughout. Also, the growth inhibition call in the test with S. aureus RN4220 is “inactive”.

On to `COc1cccc(C2(N)CCCC2)c1`, for which the cytotoxicity call in the test with HSkMC and in the test with HepG2 was “inactive” in each case. Moreover, the growth inhibition call with S. aureus RN4220 is “inactive”.

Take `COCCCNC(=O)[C@@]1(Cc2ccccc2CN=[N+]=[N-])N=C(c2ccc(OCCCO)cc2)O[C@H]1c1ccccc1N=[N+]=[N-]`: the cytotoxicity call in the test with HSkMC and in the test with HepG2 was “inactive” each time. Further, the growth inhibition call with S. aureus RN4220 is “inactive”.

On to `NCCc1ccc(O)cc1`, for which the cytotoxicity call in the test on HSkMC (human skeletal muscle cells) and in the test with HepG2 was “inactive” in each case. In addition, the growth inhibition call in the test on S. aureus RN4220 was “inactive”.

The values above are taken from the antibiotic and cytotoxicity screens of Wong et al. (2023).
